Whole data set: some 81,000 sequences, median “one-hybrid fitness for binding parS DNA” near -0.17, cut for the highest 2% near 0.51. The list shows a part of the results.
B1: Caulobacter ParB omega fusion; a variant is named by its letters at X, in order, B8GW30 (parent)
chain: MESVVVGEPGMSEGRRGLGRGLSALLGEVDAAPAQAPGEQLGGSREAPIEILQRNPDQPRRTFREEDLEDLSNSIREKGVLQPILVRPSPDTAGEYQIVAGERAWRAAQRAGLKTVPIMVRELDDLAVLEIGIIENVQRADLNVLEEALSYKVLMEKFERTQENIAQTIGKSXSHVANXMRLLXLPDEVQSYLVSGELTAXHARAIAAAADPVALAKQIIEGGLSVRETEALARKAPNLSAGKSKGGRPPRVKDTDTQALESDLSSVLGLDVSIDHRGSTGTLTITYATLEQLDDLCNRLTRGI

Variants of: B1
Assay: one-hybrid fitness for binding parS DNA (scaled: cognate 1, non-cognate 0); higher = stronger binding
Conditions: with parS DNA site
Outline: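 On M9-minus-histidine containing 0.1 mM IPTG and 5 mM 3-AT, E. coli USO cells with a HIS3 reporter, site 19 bp from the promoter, grew 48 hours at 37°C to select Caulobacter ParB libraries randomised at four specificity codons. Plasmids from before and after were Illumina-sequenced, with three replicate libraries pooled and variants under 10 reads left out. Fitness is the log change in variant-to-wild-type read ratio, rescaled against cognate and non-cognate.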

| Variant | one-hybrid fitness for binding parS DNA |
| --- | --- |
| AKPI | ≤ 0.2 |
| PLRV | ≤ 0.2 |
| DGKR | ≤ 0.2 |
| SRLT | ≤ 0.2 |
| KLLV | ≤ 0.2 |
| QLHG | ≤ 0.2 |
| NRRC | ≤ 0.2 |
| MRHS | ≤ 0.2 |
| YRAS | 0.283 |
| IKTI | ≤ 0.2 |
| STCS | ≤ 0.2 |
| TGGS | ≤ 0.2 |
| KIVR | ≤ 0.2 |
| HMFR | ≤ 0.2 |
| PFPP | ≤ 0.2 |
| NHEV | ≤ 0.2 |
| INQG | ≤ 0.2 |
| TEGL | ≤ 0.2 |
| CCNA | ≤ 0.2 |
| STAP | ≤ 0.2 |
| EYPC | ≤ 0.2 |
| DHFR | ≤ 0.2 |
| SWTA | ≤ 0.2 |
| DIKS | ≤ 0.2 |

| Variant | one-hybrid fitness for binding parS DNA |
| --- | --- |
| TIMS | ≤ 0.2 |
| ADCQ | ≤ 0.2 |
| TYPP | ≤ 0.2 |
| IIAG | ≤ 0.2 |
| KIFT | ≤ 0.2 |
| EEAP | ≤ 0.2 |
| RLEV | ≤ 0.2 |
| SAQQ | ≤ 0.2 |
| HIMM | ≤ 0.2 |
| WGMS | ≤ 0.2 |
| LCVC | ≤ 0.2 |
| MARN | ≤ 0.2 |
| YLQM | ≤ 0.2 |
| NLRM | ≤ 0.2 |
| QAMQ | ≤ 0.2 |
| ELMW | ≤ 0.2 |
| QSSC | ≤ 0.2 |
| RCFT | 0.955 |
| QALG | ≤ 0.2 |
| ISKT | ≤ 0.2 |
| MHYP | ≤ 0.2 |
| QTNN | ≤ 0.2 |
| SFNV | ≤ 0.2 |
| THPR | ≤ 0.2 |

| Variant | one-hybrid fitness for binding parS DNA |
| --- | --- |
| CNAD | ≤ 0.2 |
| PRWS | ≤ 0.2 |
| HTHL | ≤ 0.2 |
| RFIY | ≤ 0.2 |
| QYRV | ≤ 0.2 |
| KRST | ≤ 0.2 |
| QFGV | ≤ 0.2 |
| NPVT | ≤ 0.2 |
| HRRI | ≤ 0.2 |
| WHWG | ≤ 0.2 |
| NNCS | ≤ 0.2 |
| VTCV | ≤ 0.2 |
| VQQE | ≤ 0.2 |
| EWQN | ≤ 0.2 |
| TRHP | ≤ 0.2 |
| SDHS | ≤ 0.2 |
| IRPE | ≤ 0.2 |
| QGNG | ≤ 0.2 |
| NKSF | ≤ 0.2 |
| GKCS | ≤ 0.2 |
| GDEP | ≤ 0.2 |
| YCAC | ≤ 0.2 |
| DSST | ≤ 0.2 |
| PNAM | ≤ 0.2 |

| Variant | one-hybrid fitness for binding parS DNA |
| --- | --- |
| NKAS | ≤ 0.2 |
| KAPY | ≤ 0.2 |
| FHIR | ≤ 0.2 |
| FDQL | ≤ 0.2 |
| SIMV | ≤ 0.2 |
| MRLQ | ≤ 0.2 |
| RYIN | 0.269 |
| MMQL | ≤ 0.2 |
| KTNR | ≤ 0.2 |
| QLTD | ≤ 0.2 |
| SSIQ | ≤ 0.2 |
| KQQW | ≤ 0.2 |
| KYQC | ≤ 0.2 |
| RQPC | 0.426 |
| RTGA | 0.679 |
| RKEK | ≤ 0.2 |
| GKEY | ≤ 0.2 |
| LYRL | ≤ 0.2 |
| FWAY | ≤ 0.2 |
| WSAR | ≤ 0.2 |
| LSKR | ≤ 0.2 |
| GRTG | ≤ 0.2 |
| PMYT | ≤ 0.2 |
| RDVS | ≤ 0.2 |

| Variant | one-hybrid fitness for binding parS DNA |
| --- | --- |
| QMMG | ≤ 0.2 |
| WKVG | ≤ 0.2 |
| PYLV | ≤ 0.2 |
| QNNK | ≤ 0.2 |
| KAVF | ≤ 0.2 |
| RNFM | ≤ 0.2 |
| NTAK | ≤ 0.2 |
| HRWA | ≤ 0.2 |
| PANE | ≤ 0.2 |
| AWLI | ≤ 0.2 |
| NAKT | ≤ 0.2 |
| GRLA | ≤ 0.2 |
| THLL | ≤ 0.2 |
| HDQW | ≤ 0.2 |
| PKTR | ≤ 0.2 |
| TVNH | ≤ 0.2 |
| RMWA | 0.634 |
| WSRS | ≤ 0.2 |
| NMHK | ≤ 0.2 |
| SLHR | ≤ 0.2 |
| AQFF | ≤ 0.2 |
| SAIL | ≤ 0.2 |
| MCRW | ≤ 0.2 |
| FFSL | ≤ 0.2 |

| Variant | one-hybrid fitness for binding parS DNA |
| --- | --- |
| GAHR | ≤ 0.2 |
| NGDS | ≤ 0.2 |
| YRFG | ≤ 0.2 |
| NSDC | ≤ 0.2 |
| PLGC | ≤ 0.2 |
| RPVE | ≤ 0.2 |
| KPAA | ≤ 0.2 |
| WTRG | ≤ 0.2 |
| IKAR | ≤ 0.2 |
| VKYL | ≤ 0.2 |
| YLGC | ≤ 0.2 |
| EQSL | ≤ 0.2 |
| DRWI | ≤ 0.2 |
| MKHS | ≤ 0.2 |
| SCQP | ≤ 0.2 |
| YSVK | ≤ 0.2 |
| DHSD | ≤ 0.2 |
| LMKN | ≤ 0.2 |
| KFGE | ≤ 0.2 |
| VDIS | ≤ 0.2 |
| YYQC | ≤ 0.2 |
| PPHP | ≤ 0.2 |
| FPPI | ≤ 0.2 |
| GDPR | ≤ 0.2 |

| Variant | one-hybrid fitness for binding parS DNA |
| --- | --- |
| SIRG | ≤ 0.2 |
| AKGR | ≤ 0.2 |
| QLEK | ≤ 0.2 |
| TIYT | ≤ 0.2 |
| PVCT | ≤ 0.2 |
| RFYE | ≤ 0.2 |
| VQFV | ≤ 0.2 |
| HSKY | ≤ 0.2 |
| FQHG | ≤ 0.2 |
| NARD | ≤ 0.2 |
| NQKY | ≤ 0.2 |
| QIKY | ≤ 0.2 |
| RRPR | ≤ 0.2 |
| DKMR | ≤ 0.2 |
| LGQE | ≤ 0.2 |
| TKHC | ≤ 0.2 |
| TCAP | ≤ 0.2 |
| YIPG | ≤ 0.2 |
| FGGT | ≤ 0.2 |
| RSMM | 0.308 |
| PPMM | ≤ 0.2 |
| GEIF | ≤ 0.2 |
| YLSL | ≤ 0.2 |
| RKSV | ≤ 0.2 |

| Variant | one-hybrid fitness for binding parS DNA |
| --- | --- |
| LFLS | ≤ 0.2 |
| YPCC | ≤ 0.2 |
| KTND | ≤ 0.2 |
| NQTI | ≤ 0.2 |
| TPPM | ≤ 0.2 |
| PKAP | ≤ 0.2 |
| DQAD | ≤ 0.2 |
| PLNT | ≤ 0.2 |
| HWIG | ≤ 0.2 |
| AYIN | ≤ 0.2 |
| GIWS | ≤ 0.2 |
| LPVD | ≤ 0.2 |
| RLEH | 0.228 |
| QMMD | ≤ 0.2 |
| MSLW | ≤ 0.2 |
| SCRN | ≤ 0.2 |
| DSMD | ≤ 0.2 |
| TNDR | ≤ 0.2 |
| ASPI | ≤ 0.2 |
| RLSN | 0.455 |
| HHST | ≤ 0.2 |
| DING | ≤ 0.2 |
| HITR | ≤ 0.2 |
| RIRC | 0.847 |

| Variant | one-hybrid fitness for binding parS DNA |
| --- | --- |
| TTVR | ≤ 0.2 |
| PQGT | ≤ 0.2 |
| CNIR | ≤ 0.2 |
| PQIY | ≤ 0.2 |
| AYMC | ≤ 0.2 |
| LDSM | ≤ 0.2 |
| MMSM | ≤ 0.2 |
| CKEG | ≤ 0.2 |
| RDLY | ≤ 0.2 |
| TQMA | ≤ 0.2 |
| MDRS | ≤ 0.2 |
| GVRK | ≤ 0.2 |
| HRAC | 0.25 |
| LVPC | ≤ 0.2 |
| PSRA | ≤ 0.2 |
| RPMA | ≤ 0.2 |
| SHHC | ≤ 0.2 |
| YVDS | ≤ 0.2 |
| QNQV | ≤ 0.2 |
| EKHG | ≤ 0.2 |
| KLCG | ≤ 0.2 |
| QCEA | ≤ 0.2 |
| KPLK | ≤ 0.2 |
| VLPG | ≤ 0.2 |

| Variant | one-hybrid fitness for binding parS DNA |
| --- | --- |
| TRNG | ≤ 0.2 |
| TLII | ≤ 0.2 |
| KNNH | ≤ 0.2 |
| HTVS | ≤ 0.2 |
| GARQ | ≤ 0.2 |
| YYMV | ≤ 0.2 |
| VPLA | ≤ 0.2 |
| EFSD | ≤ 0.2 |
| RHRC | 0.879 |
| PDND | 0.211 |
| WTYS | ≤ 0.2 |
| CHVS | ≤ 0.2 |
| YPMT | ≤ 0.2 |
| ACKS | ≤ 0.2 |
| GLSC | ≤ 0.2 |
| REGV | ≤ 0.2 |
| QSYI | ≤ 0.2 |
| FQAS | ≤ 0.2 |
| PYEY | ≤ 0.2 |
| LAHY | ≤ 0.2 |
| CWRN | ≤ 0.2 |
| HRLG | 0.266 |
| TGGD | ≤ 0.2 |
| GNTL | ≤ 0.2 |

| Variant | one-hybrid fitness for binding parS DNA |
| --- | --- |
| GTDM | ≤ 0.2 |
| EWLW | ≤ 0.2 |
| QALI | ≤ 0.2 |
| NYFS | ≤ 0.2 |
| AQTG | ≤ 0.2 |
| TRMC | ≤ 0.2 |
| LTDM | ≤ 0.2 |
| GVVR | ≤ 0.2 |
| SDDC | ≤ 0.2 |
| SIAQ | ≤ 0.2 |
| KHRD | ≤ 0.2 |
| KRFL | ≤ 0.2 |
| CYPL | ≤ 0.2 |
| HLGW | ≤ 0.2 |
| PTIR | ≤ 0.2 |
| SDFG | ≤ 0.2 |
| TPMN | ≤ 0.2 |
| AHSM | ≤ 0.2 |
| YHIT | ≤ 0.2 |
| NCRY | ≤ 0.2 |
| NNHR | ≤ 0.2 |
| AYST | ≤ 0.2 |
| HSQG | ≤ 0.2 |
| LGVD | ≤ 0.2 |

| Variant | one-hybrid fitness for binding parS DNA |
| --- | --- |
| PRLA | ≤ 0.2 |
| WERR | ≤ 0.2 |
| ANLL | ≤ 0.2 |
| QFLM | ≤ 0.2 |
| HRGY | ≤ 0.2 |
| FSQS | ≤ 0.2 |
| QPVY | ≤ 0.2 |
| GMSI | ≤ 0.2 |
| QYDM | ≤ 0.2 |
| QSES | ≤ 0.2 |
| IVPE | ≤ 0.2 |
| IHIC | ≤ 0.2 |
| WHSS | ≤ 0.2 |
| CTQI | ≤ 0.2 |
| KALI | ≤ 0.2 |
| SRMS | ≤ 0.2 |
| SNVC | ≤ 0.2 |
| WPRG | ≤ 0.2 |
| GTYT | ≤ 0.2 |
| APAD | ≤ 0.2 |
| DTAM | ≤ 0.2 |
| IIST | ≤ 0.2 |
| TEQE | ≤ 0.2 |
| AKKN | ≤ 0.2 |

| Variant | one-hybrid fitness for binding parS DNA |
| --- | --- |
| YKDR | ≤ 0.2 |
| ANSS | ≤ 0.2 |
| LPPD | ≤ 0.2 |
| VLWG | ≤ 0.2 |
| LIPG | ≤ 0.2 |
| VICS | ≤ 0.2 |
| TIMA | ≤ 0.2 |
| IDNR | ≤ 0.2 |
| RLLP | ≤ 0.2 |
| HLAC | ≤ 0.2 |
| GWIY | ≤ 0.2 |
| KIDM | ≤ 0.2 |
| EATL | ≤ 0.2 |
| TTTA | ≤ 0.2 |
| FNAR | ≤ 0.2 |
| NVYT | ≤ 0.2 |
| RYWW | ≤ 0.2 |
| MIIL | ≤ 0.2 |
